{"source": "patent US20250041437A1", "about": "“HUMANIZED MUC1 ANTIBODY AND ANTIBODY DRUG CONJUGATE” (Sun Pharma Advanced Research Company Limited, priority 2023, published 2025)", "key": {"[1]": {"system": "SKOV3 derived xenograft", "conditions": "mouse, in vivo"}, "[2]": {"system": "COLO-357 pancreatic carcinoma cells", "test": "Growth inhibition of human cancer cell lines, COLO-357"}, "[3]": {"target": "purified Cathepsin B enzyme (Homo sapiens, UniProt P07858)", "test": "Stability in purified Cathepsin B enzyme assay", "type": "in vitro ADME", "conditions": "6 hours"}, "[4]": {"test": "Stability in human plasma (MMAE release)", "type": "in vitro ADME", "conditions": "48 hours", "method": "(§1) At the end of 48 hours, the MMAE released in human plasma was <5 nM, while in mouse plasma it was 214 nM corresponding to <0.1% and 4.5% MMAE release in human and mouse plasma, respectively."}, "[5]": {"test": "Stability in mouse plasma (MMAE release)", "type": "in vitro ADME", "conditions": "48 hours", "method": "as §1"}, "[6]": {"system": "Detroit 562 derived xenograft", "conditions": "mouse, in vivo"}, "[7]": {"test": "Single dose pharmacokinetics, SKOV3 tumor bearing mouse, IV 3 mg/kg", "type": "in vivo", "conditions": "3 mg/kg IV"}, "[8]": {"system": "SKOV-3 cells", "test": "Growth inhibition of human cancer cell lines, SKOV-3", "type": "cell-based", "conditions": "SKOV-3, moderate MUC1 expressing", "method": "Human cancer cell lines (such as Colo357, HT29, SKOV3, BxPC3 and T47D) were seeded at 5000 cells/well in a 96-well plate flat bottom clear plate and allowed to adhere overnight. Next day, antibody/ADCs were added to these cells at the mentioned concentration or at a mentioned concentration range. Post 5-7 days of treatment, 20 μl of presto blue dye was added to wells and absorbance was recorded at 570 nm (600 nm reference wavelength). Percent survival was calculated against wells containing untreated cells in complete media and IC50 was calculated in Graphpad Prism."}, "[9]": {"system": "MCF7 derived xenograft", "conditions": "mouse, in vivo"}, "[10]": {"test": "Single dose pharmacokinetics, COLO357 tumor bearing mouse, IV", "type": "in vivo", "method": "The objective of this study was to evaluate serum, tumor and liver pharmacokinetics of TAB, CAB and uMMAE following 3 mg/kg single IV administration of M5LM4-ADC and pharmacokinetics of MMAE following 0.06 mg/kg single IV administration of MMAE alone in a COLO357 tumor bearing mouse model.\nThe blood samples were collected from the mouse at 0.083, 0.5, 1, 2, 4, 8, 24, 48, 72, 96, 168 and 336 hours post-dose (n=3 mice/time point; sparse sampling design) through retro-orbital plexuses and serum was immediately harvested. At 24, 48, 72, 96, 168 and 336 hour time-points, the tumor and liver were collected. Analysis of total antibody (TAB) and conjugated antibody (CAB) was done by a fit for purpose ELISA based method and analysis of free payload (MMAE) was done by a fit for purpose LC-MS/MS based method. Pharmacokinetic analysis was performed by the non-compartmental analysis tool of Phoenix WinNonlin® software."}, "[11]": {"conditions": "5000 nM MMAE equivalent, 37° C."}, "[12]": {"conditions": "CAB, HM5LM4-ADC 3 mg/kg IV, liver"}, "[13]": {"conditions": "CAB, HM5LM4-ADC 3 mg/kg IV, serum"}, "[14]": {"conditions": "CAB, HM5LM4-ADC 3 mg/kg IV, tumor"}, "[15]": {"conditions": "TAB, HM5LM4-ADC 3 mg/kg IV, liver"}, "[16]": {"conditions": "TAB, HM5LM4-ADC 3 mg/kg IV, serum"}, "[17]": {"conditions": "TAB, HM5LM4-ADC 3 mg/kg IV, tumor"}, "[18]": {"conditions": "single IV HM5LM4-ADC, COLO357 tumor bearing mice"}, "[19]": {"conditions": "uMMAE, HM5LM4-ADC 3 mg/kg IV, liver"}}, "note": "Where “and” joins values, the source holds several entries; their conditions need not be identical. Equal values may be shown once."}
{"molecule": "HM5LM4-ADC: humanized IgG anti-MUC1-SEA mAb HM5-LM4 conjugated to MC-Val-Cit-PABC-MMAE (conjugate, non-natural residues, humanized IgG anti-MUC1-SEA mAb HM5-LM4 conjugated to MC-Val-Cit-PABC-MMAE) heavy: EIQLVQSGAEVKKPGSSVKVSCKVTGHSITRGSSWHWMRQAPGQGLEWIGYIHYGGGTSYNPSLKSRITITRDTSTNTFYMELSSLRSEDTAFYFCARYSYDITYRWFFDVWGQGTLVTVSSASTKGPSVFPLAPSSKSTSGGTAALGCLVKDYFPEPVTVSWNSGALTSGVHTFPAVLQSSGLYSLSSVVTVPSSSLGTQTYICNVNHKPSNTKVDKRV[gap - human IgG1 Fc] light: DIQMTQSPSTLSASVGDRVTITCRASQNIGTSIHWYQQKPGKAPKLLIKYASESISGVPSRFSGSGSGTEFTLTISSLQPDDFATYYCQQNNNWPLTFGQGTKVEIKRTVAAPSVFIFPPSDEQLKSGTASVVCLLNNFYPREAKVQWKVDNALQSGNSQESVTEQDSKDSTYSLSSTLTLSKADYEKHKVYACEVTHQGLSSPVTKSFNRGEC", "values": [{"measurement": "tolerability (in words)", "setting": "[1]", "result": "tolerated well"}, {"measurement": "cytotoxic effect / growth inhibition (in words)", "setting": "[2]; COLO-357, high MUC1-SEA expressing", "result": "observed"}, {"measurement": "IC50", "setting": "[2]; read-out: Equivalent MMAE IC50, COLO-357, ADC expressed as equivalent MMAE", "result": 1.01, "unit": "nM"}, {"measurement": "MMAE released", "setting": "[3]; [11]", "result": 2800, "unit": "nM"}, {"measurement": "MMAE release", "setting": "[3]", "result": 56, "unit": "%"}, {"measurement": "MMAE released", "setting": "[4]; [11]", "result": "< 5", "unit": "nM"}, {"measurement": "MMAE release", "setting": "[4]", "result": "< 0.1", "unit": "%"}, {"measurement": "MMAE released", "setting": "[5]; [11]", "result": 214, "unit": "nM"}, {"measurement": "MMAE release", "setting": "[5]", "result": 4.5, "unit": "%"}, {"measurement": "tolerability (in words)", "setting": "[6]", "result": "tolerated well"}, {"measurement": "AUC0-24", "setting": "[7]; CAB, serum", "result": 11.919, "unit": "µM·h"}, {"measurement": "AUC0-168", "setting": "[7]; CAB, serum", "result": 48.969, "unit": "µM·h"}, {"measurement": "AUCINF", "setting": "[7]; CAB, serum", "result": 50.731, "unit": "µM·h"}, {"measurement": "Cmax", "setting": "[7]; CAB, serum", "result": 1060, "unit": "nM"}, {"measurement": "T1/2", "setting": "[7]; CAB, serum", "result": 37, "unit": "h"}, {"measurement": "AUC0-168", "setting": "[7]; CAB, tumor", "result": 0.914, "unit": "µM·h"}, {"measurement": "Cmax", "setting": "[7]; CAB, tumor", "result": 9.2, "unit": "nM"}, {"measurement": "T1/2", "setting": "[7]; CAB, tumor", "result": 58, "unit": "h"}, {"measurement": "AUC0-24", "setting": "[7]; TAB, serum", "result": 8.676, "unit": "µM·h"}, {"measurement": "AUC0-168", "setting": "[7]; TAB, serum", "result": 36.226, "unit": "µM·h"}, {"measurement": "AUCINF", "setting": "[7]; TAB, serum", "result": 45.757, "unit": "µM·h"}, {"measurement": "CL", "setting": "[7]; TAB, serum", "result": 0.6, "unit": "mL/h/kg"}, {"measurement": "Cmax", "setting": "[7]; TAB, serum", "result": 721, "unit": "nM"}, {"measurement": "T1/2", "setting": "[7]; TAB, serum", "result": 74, "unit": "h"}, {"measurement": "AUC0-168", "setting": "[7]; TAB, tumor", "result": 3.968, "unit": "µM·h"}, {"measurement": "Cmax", "setting": "[7]; TAB, tumor", "result": 63, "unit": "nM"}, {"measurement": "T1/2", "setting": "[7]; TAB, tumor", "result": 70, "unit": "h"}, {"measurement": "AUC0-24", "setting": "[7]; uMMAE, serum", "result": 0.031, "unit": "µM·h"}, {"measurement": "AUC0-168", "setting": "[7]; uMMAE, serum", "result": 0.084, "unit": "µM·h"}, {"measurement": "AUCINF", "setting": "[7]; uMMAE, serum", "result": 0.095, "unit": "µM·h"}, {"measurement": "T1/2", "setting": "[7]; uMMAE, serum", "result": 50, "unit": "h"}, {"measurement": "Tmax", "setting": "[7]; uMMAE, serum", "result": 4.8, "unit": "min"}, {"measurement": "AUC0-168", "setting": "[7]; uMMAE, tumor", "result": 6.001, "unit": "µM·h"}, {"measurement": "Cmax", "setting": "[7]; uMMAE, tumor", "result": 50, "unit": "nM"}, {"measurement": "T1/2", "setting": "[7]; uMMAE, tumor", "result": 105, "unit": "h"}, {"measurement": "cytotoxic effect / growth inhibition (in words)", "setting": "[8]", "result": "no cytotoxic effect"}, {"measurement": "growth of MCF7 xenografts (in words)", "setting": "[9]", "result": "completely inhibited growth"}, {"measurement": "tumor regression", "setting": "[9]", "result": "12±20% and 16±16%"}, {"measurement": "AUC0-336", "setting": "[10]; [12]", "result": 0.228, "unit": "µM·h"}, {"measurement": "Cmax", "setting": "[10]; [12]", "result": 2.6, "unit": "nM"}, {"measurement": "T1/2", "setting": "[10]; [12]", "result": 59, "unit": "h"}, {"measurement": "AUC0-24", "setting": "[10]; [13]", "result": 4.862, "unit": "µM·h"}, {"measurement": "AUC0-336", "setting": "[10]; [13]", "result": 9.196, "unit": "µM·h"}, {"measurement": "AUCINF", "setting": "[10]; [13]", "result": 9.272, "unit": "µM·h"}, {"measurement": "Cmax", "setting": "[10]; [13]", "result": 416, "unit": "nM"}, {"measurement": "T1/2", "setting": "[10]; [13]", "result": 59, "unit": "h"}, {"measurement": "Tmax", "setting": "[10]; [13]", "result": 0.5, "unit": "h"}, {"measurement": "AUC0-336", "setting": "[10]; [14]", "result": 1.996, "unit": "µM·h"}, {"measurement": "Cmax", "setting": "[10]; [14]", "result": 8.4, "unit": "nM"}, {"measurement": "T1/2", "setting": "[10]; [14]", "result": 191, "unit": "h"}, {"measurement": "AUC0-336", "setting": "[10]; [15]", "result": 0.846, "unit": "µM·h"}, {"measurement": "Cmax", "setting": "[10]; [15]", "result": 10, "unit": "nM"}, {"measurement": "T1/2", "setting": "[10]; [15]", "result": 61, "unit": "h"}, {"measurement": "AUC0-24", "setting": "[10]; [16]", "result": 4.366, "unit": "µM·h"}, {"measurement": "AUC0-336", "setting": "[10]; [16]", "result": 9.624, "unit": "µM·h"}, {"measurement": "AUCINF", "setting": "[10]; [16]", "result": 9.904, "unit": "µM·h"}, {"measurement": "CL", "setting": "[10]; [16]", "result": 1.8, "unit": "mL/h/kg"}, {"measurement": "Cmax", "setting": "[10]; [16]", "result": 360, "unit": "nM"}, {"measurement": "T1/2", "setting": "[10]; [16]", "result": 78, "unit": "h"}, {"measurement": "Tmax", "setting": "[10]; [16]", "result": 0.5, "unit": "h"}, {"measurement": "Vss", "setting": "[10]; [16]", "result": 0.1, "unit": "L/kg"}, {"measurement": "AUC0-336", "setting": "[10]; [17]", "result": 2.275, "unit": "µM·h"}, {"measurement": "Cmax", "setting": "[10]; [17]", "result": 10, "unit": "nM"}, {"measurement": "tumor exposure of uMMAE higher than in serum", "setting": "[10]; [18]", "result": 240, "unit": "fold"}, {"measurement": "tumor exposure of uMMAE higher than in the liver", "setting": "[10]; [18]", "result": 6.2, "unit": "fold"}, {"measurement": "AUC0-336", "setting": "[10]; [19]", "result": 2.686, "unit": "µM·h"}, {"measurement": "Cmax", "setting": "[10]; [19]", "result": 32, "unit": "nM"}, {"measurement": "T1/2", "setting": "[10]; [19]", "result": 56, "unit": "h"}, {"measurement": "AUC0-24", "setting": "[10]; uMMAE, HM5LM4-ADC 3 mg/kg IV, serum", "result": 0.032, "unit": "µM·h"}]}
